Source: the supplement of paper PMC4967469

Key:
Assay in all cases: Viability of human cancer cell lines after 72 h of drug (GDSC screen)
GDC0941 = compound: CS(=O)(=O)N1CCN(Cc2cc3nc(-c4cccc5[nH]ncc45)nc(N4CCOCC4)c3s2)CC1 [GDC0941]; conditions: top dose 4 µM; screen: GDSC drug entry 1527; top dose inferred
Experimental: (§1)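 Human cancer cell lines in 384-well plates, medium with 10% serum, drug for 72 h over a 256-fold dose range (nine 2-fold or five 4-fold steps up to the top dose). Adherent lines were fixed and stained with the nucleic acid dye Syto60, suspension lines read with resazurin; signal relative to control wells, capped at 0 and 100%. One two-parameter sigmoid per drug and line, fitted in a mixed model over all curves with the slope shared within a line.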

MG-132 = compound: CC(C)C[C@@H](C=O)NC(=O)[C@H](CC(C)C)NC(=O)[C@H](CC(C)C)NC(=O)OCc1ccccc1 [MG-132]; conditions: top dose 1 µM
Experimental: as §1

AR-42 = compound: CC(C)[C@H](C(=O)Nc1ccc(C(=O)NO)cc1)c1ccccc1 [AR-42]; conditions: top dose 5.12 µM; top dose inferred
Experimental: as §1

CEP-701 = compound: C[C@]12O[C@H](C[C@]1(O)CO)n1c3ccccc3c3c4c(c5c6ccccc6n2c5c31)CNC4=O [CEP-701]; conditions: top dose 2 µM; top dose inferred
Experimental: as §1

Pazopanib = compound: Cc1ccc(Nc2nccc(N(C)c3ccc4c(C)n(C)nc4c3)n2)cc1S(N)(=O)=O [Pazopanib]; conditions: top dose 8 µM
Experimental: as §1

SB 216763 = compound: Cn1cc(C2=C(c3ccc(Cl)cc3Cl)C(=O)NC2=O)c2ccccc21 [SB 216763]; conditions: top dose 10 µM; top dose inferred
Experimental: as §1

Sunitinib = compound: CCN(CC)CCNC(=O)c1c(C)[nH]c(/C=C2\C(=O)Nc3ccc(F)cc32)c1C [Sunitinib]; conditions: top dose 8 µM
Experimental: as §1

Row | Cell Line | AUC (GDC0941) | IC50 (GDC0941) [nM] | AUC (MG-132) | IC50 (MG-132) [nM] | AUC (AR-42) | IC50 (AR-42) [nM] | AUC (CEP-701) | IC50 (CEP-701) [nM] | AUC (Pazopanib) | IC50 (Pazopanib) [nM] | AUC (SB 216763) | IC50 (SB 216763) [nM] | AUC (Sunitinib) | IC50 (Sunitinib) [nM]
1 | COR-L279 (small cell lung carcinoma, suspension) | 0.84 | 2330 | 0.88 | 842 | 0.297 | 92.5 | 0.808 | 902 | 0.958 | > 8000 | 0.991 | > 10000 | 0.911 | > 8000
2 | CTV-1 (acute myeloid leukaemia, suspension) | 0.939 | > 4000 | 0.751 | 274 | 0.434 | 220 | 0.65 | 297 | 0.888 | 5920 | 0.948 | > 10000 | 0.717 | 1770
3 | D-283MED (medulloblastoma, adherent) | 0.972 | > 4000 | 0.981 | > 1000 | 0.991 | > 5120 | 0.504 | 128 | 0.983 | > 8000 | 0.99 | > 10000 | 0.9 | > 8000
4 | DND-41 (T-cell leukaemia, suspension) | 0.905 | > 4000 | 0.707 | 221 | 0.357 | 136 | 0.531 | 151 | 0.971 | > 8000 | 0.982 | > 10000 | 0.79 | 3100
5 | Daudi (Burkitt lymphoma, suspension) | 0.72 | 952 | 0.81 | 445 | 0.397 | 173 | 0.696 | 409 | 0.822 | 3910 | 0.967 | > 10000 | 0.84 | 4530
6 | EM-2 (chronic myeloid leukaemia, suspension) | 0.698 | 978 | 0.854 | 962 | 0.41 | 176 | 0.588 | 224 | 0.947 | > 8000 | 0.929 | > 10000 | 0.871 | > 8000
7 | ES4 (Ewing sarcoma, adherent) | 0.637 |  | 0.843 | 865 | 0.769 | 2220 | 0.489 | 116 | 0.952 | > 8000 | 0.978 | > 10000 | 0.77 | 3510
8 | ES6 (Ewing sarcoma, adherent) | 0.913 | > 4000 | 0.312 | 16.3 | 0.69 | 1250 | 0.821 | 1540 | 0.822 | 6210 | 0.982 | > 10000 | 0.588 | 926
9 | ETK-1 (biliary tract, adherent) | 0.564 | 383 | 0.963 | > 1000 | 0.6 | 627 | 0.754 | 753 | 0.963 | > 8000 | 0.955 | > 10000 | 0.63 | 1200
10 | EW-3 (Ewing sarcoma, adherent) | 0.628 | 594 | 0.974 | > 1000 | 0.477 | 275 | 0.73 | 628 | 0.975 | > 8000 | 0.984 | > 10000 | 0.871 | > 8000
11 | EW-13 (Ewing sarcoma, suspension) | 0.77 | 1680 | 0.978 | > 1000 | 0.667 | 984 | 0.828 | 1410 | 0.89 | > 8000 | 0.982 | > 10000 | 0.954 | > 8000
12 | EW-24 (Ewing sarcoma, semi-adherent) | 0.862 | 2770 | 0.836 | 553 | 0.8 | 2130 | 0.918 | > 2000 | 0.987 | > 8000 | 0.976 | > 10000 | 0.99 | > 8000
13 | EoL-1-cell (haematopoietic neoplasm, suspension) | 0.863 | 2820 | 0.959 | > 1000 | 0.1 | < 20 | 0.14 | 11.5 | 0.025 | < 31.2 | 0.955 | > 10000 | 0.023 | < 31.2
14 | GB-1 (glioma, adherent) | 0.82 | 2840 | 0.705 | 265 | 0.308 | 83.6 | 0.563 | 191 | 0.81 | 5180 | 0.926 | > 10000 | 0.629 | 1210
15 | GDM-1 (acute myeloid leukaemia, suspension) | 0.45 | 184 | 0.782 | 399 | 0.326 | 107 | 0.649 | 317 | 0.337 | 181 | 0.987 | > 10000 | 0.174 | 54.7
16 | GOTO (neuroblastoma, adherent) | 0.895 | > 4000 | 0.974 | > 1000 | 0.624 | 736 | 0.771 | 872 | 0.976 | > 8000 | 0.983 | > 10000 | 0.913 | > 8000
17 | GR-ST (lymphoblastic leukaemia, suspension) | 0.487 | 229 | 0.949 | > 1000 | 0.408 | 170 | 0.696 | 504 | 0.945 | > 8000 | 0.971 | > 10000 | 0.89 | > 8000
18 | GT3TKB (stomach, adherent) | 0.782 | 1460 | 0.837 | 559 | 0.669 | 887 | 0.633 | 276 | 0.887 | 7050 | 0.986 | > 10000 | 0.871 | 6050

The IC50 comes from the fitted curve, where viability falls to half of the control; where the fit passes the top or lowest dose, that dose stands as a limit. For AUC the same curve is integrated over the 256-fold range of doses and scaled to a fraction; values near 1 show little effect. For some assays here: An inferred top dose was derived from the fitted curves, not read from the paper. For some assays here: Where an entry number is given, a second screen of the drug exists; the two often differ.
